# Reference: PubChem BioAssay AID504332 (National Center for Advancing Translational Sciences (NCATS), 2011)
# Hit rate of the full screen: of about 350,000 compounds, about 31,000 (8.9%) were called active. This list was built around the results that the source calls inconclusive (neither active nor inactive); the mix of calls is not that of the screen. Calls follow the shape of the dose curve; as a rule, active = well fitted inhibition curve with a large enough effect; inconclusive = small, poorly fitted or top-dose-only effect; inactive = no such curve, though single readings can be large or run the other way. Potencies beside an inconclusive call are fits to weak or partial responses and may not hold up.
# Biological target: Histone-lysine N-methyltransferase EHMT2 (Homo sapiens) (UniProt Q96KQ7)
# Assay: qHTS Assay for Inhibitors of Histone Lysine Methyltransferase G9a; also: nearly all actives have a fitted effect of over 75% in size
# Conditions: G9a H3K9 monomethylation, AlphaScreen, 2 h; activity, negative = inhibition: at 59 µM (top of the series) unless noted
# Summary of the method: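 Methyltransferase reactions run at room temperature for 2 h (20 nM enzyme, 500 nM biotin-H3K9 peptide, 20 uM SAM) after a 15 min compound preincubation; product detected by AlphaScreen beads and anti-H3K9me1 antibody.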
# % is scaled to controls: 0 for no effect and ±100 for the full control effect; potency is read from the fitted curve at half-maximal effect; tags tell the direction and shape of the fitted curve.
# UniProt Q96KQ7, sequence (Q96KQ7 whole entry, looked up): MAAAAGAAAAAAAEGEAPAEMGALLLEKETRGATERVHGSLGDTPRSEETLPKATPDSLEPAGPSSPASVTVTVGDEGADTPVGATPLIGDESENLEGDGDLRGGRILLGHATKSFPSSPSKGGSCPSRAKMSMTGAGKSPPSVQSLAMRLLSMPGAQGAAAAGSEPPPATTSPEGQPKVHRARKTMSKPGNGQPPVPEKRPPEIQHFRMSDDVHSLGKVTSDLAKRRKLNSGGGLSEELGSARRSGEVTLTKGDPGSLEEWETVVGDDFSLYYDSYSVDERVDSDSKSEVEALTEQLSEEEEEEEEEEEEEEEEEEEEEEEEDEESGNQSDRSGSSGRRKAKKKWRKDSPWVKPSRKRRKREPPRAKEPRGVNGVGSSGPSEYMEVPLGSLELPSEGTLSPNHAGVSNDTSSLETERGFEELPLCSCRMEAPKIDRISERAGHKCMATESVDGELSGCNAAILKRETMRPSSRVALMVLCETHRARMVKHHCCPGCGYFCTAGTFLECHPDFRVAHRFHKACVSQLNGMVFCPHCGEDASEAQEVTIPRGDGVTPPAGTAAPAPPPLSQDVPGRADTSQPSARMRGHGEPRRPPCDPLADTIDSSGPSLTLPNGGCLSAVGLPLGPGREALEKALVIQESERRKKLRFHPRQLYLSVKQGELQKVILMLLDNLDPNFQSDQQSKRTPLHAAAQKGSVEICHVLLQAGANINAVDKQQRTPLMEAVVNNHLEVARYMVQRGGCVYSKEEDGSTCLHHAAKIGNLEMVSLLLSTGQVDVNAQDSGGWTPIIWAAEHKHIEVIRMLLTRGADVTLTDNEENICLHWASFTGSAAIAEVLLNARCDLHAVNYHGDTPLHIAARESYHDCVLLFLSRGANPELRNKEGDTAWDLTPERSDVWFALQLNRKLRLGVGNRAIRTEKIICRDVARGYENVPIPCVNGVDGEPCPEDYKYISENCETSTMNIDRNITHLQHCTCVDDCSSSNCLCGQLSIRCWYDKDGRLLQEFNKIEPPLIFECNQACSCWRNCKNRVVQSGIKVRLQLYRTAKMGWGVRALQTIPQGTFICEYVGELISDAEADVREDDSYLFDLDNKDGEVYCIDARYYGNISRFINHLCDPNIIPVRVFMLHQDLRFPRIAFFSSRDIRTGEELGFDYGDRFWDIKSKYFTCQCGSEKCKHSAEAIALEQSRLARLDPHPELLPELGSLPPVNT
SMILES,Potency,"activity, negative = inhibition"
Cc1ccc(CNCC2CCCO2)s1 (stereo not given),"inconclusive: 89.1 µM [inhibitor, single point]",–
COc1cc(OC)c(C(=O)OCC(=O)NCC2CCCCC2)cc1OC,"inconclusive: 44.7 µM [inhibitor, partial curve, poor fit]",–
O=C(Cc1cccs1)N1CCN(S(=O)(=O)c2ccc(Br)cc2)CC1,"inconclusive: 70.8 µM [inhibitor, partial curve]",–
N#CC1=C(N)N(c2ccc(Oc3ccccc3)cc2)C(=O)C1,–,inconclusive: -54.7% [inhibitor]
Cc1ccc(N2CC(C(=O)NCCc3ccc(S(N)(=O)=O)cc3)CC2=O)cc1 (stereo not given),"inconclusive: 39.8 µM [inhibitor, single point]",–
O=S(=O)([N-]c1nc2ccccc2nc1-[n+]1ccc(CCCc2ccccc2)cc1)c1cccs1,"inconclusive: 17.8 µM [inhibitor, partial curve]",–
O=C(CCCN=C1NS(=O)(=O)c2ccccc21)OCC(=O)c1ccc(F)c(F)c1,active: 44.7 µM,–
Cc1cc(C)c(C)c(OCCn2ccnc2)c1,"inconclusive: 89.1 µM [inhibitor, single point]",–
Nc1scc[n+]1Cc1cccc2cccnc12,"inconclusive: 70.8 µM [inhibitor, partial curve, poor fit]",–
Cc1cc(OCC(=O)NCCN2CCOCC2)c2c(C)c(C)c(=O)oc2c1,inactive,–
CCN(CC)CCn1c(=S)[nH]c2cc3c(cc2c1=O)OCO3,active: 44.7 µM,–
CC1=C(C(=O)N(C)C)C(c2ccc(C)s2)NC(=S)N1 (stereo not given),"inconclusive: 89.1 µM [inhibitor, partial curve, poor fit]",–
COC(=O)C1=NNC2(c3ccc(C)cc3)C(=O)N(c3cccc(C)c3C)C(=O)C12 (stereo not given),"inconclusive: 89.1 µM [inhibitor, single point]",–
O=C1C2C3C=CC(C3)C2C(=O)N1/N=C/c1ccc(-c2ccccc2[N+](=O)[O-])o1 (stereo not given),inactive,–
O=C(CSc1nnc(COc2ccccc2F)n1-c1ccccc1)NC1CCS(=O)(=O)C1 (stereo not given),"inconclusive: 31.6 µM [inhibitor, single point]",–
Cc1cccc(C)c1OCCN1CCCC1,active: 25.1 µM,–
COc1ccc(-c2cnnn2-c2ccc(NC(=O)c3c(F)cccc3F)cc2)cc1,inactive,–
Cc1ccc(OCC(=O)Nc2ccc(N(C)C)cc2)cc1,active: 8.91 µM,–
Clc1cccc(-c2nc(NCCCN3CCOCC3)c3ccccc3n2)c1,"inconclusive: 70.8 µM [inhibitor, single point]",–
Cc1c(Cl)ccc2c(C(=O)NCCN3CCCCC3)cc(-c3ccccn3)nc12,inactive,–
Cn1c(N2CCCCC2)nc2c1c(=O)[nH]c(=O)n2C,"inconclusive: 63.1 µM [inhibitor, single point]",–
Cc1c(Cl)cccc1NC(=S)N(Cc1ccccc1)Cc1cccnc1,"inconclusive: 50.1 µM [inhibitor, partial curve]",–
COc1cccc(C2C(C(C)=O)=C(O)C(=O)N2CCNCCO)c1 (stereo not given),–,inactive: 24.3% [at 12.7 µM]
CN1CCN(c2ccccc2NC(=O)c2cccc(OCc3ccccc3)c2)CC1,–,inconclusive: -60.2% [inhibitor]

SMILES,Potency,"activity, negative = inhibition"
CCCCN(C(=O)C1CCCC1)c1c(N)n(CCC)c(=O)[nH]c1=O,"inconclusive: 89.1 µM [inhibitor, single point]",–
CCOc1ccc(Cn2nnc3c(=O)[nH]c(C4CCN(C(=O)c5ccccc5)CC4)nc32)cc1,"inconclusive: 28.2 µM [inhibitor, single point]",–
COc1cc(N2C(=O)CSC2=S)cc(OC)c1OC,"inconclusive: 89.1 µM [inhibitor, single point]",–
O=C(CN1CCCCC1)Nc1ccc(Br)cc1[N+](=O)[O-],"inconclusive: 31.6 µM [inhibitor, partial curve, poor fit]",–
O=C(CCNc1ccccc1)c1ccc2c(c1)OCO2,"inconclusive: 31.6 µM [inhibitor, single point]",–
COc1cc(/C=C2\SC(c3ccc(C)cc3)=NC2=O)cc(OC)c1OC,active: 1 µM,–
Nn1cnnc1N/N=C/c1ccc(Cl)c([N+](=O)[O-])c1,active: 44.7 µM,–
O=C(Cc1ccc(F)cc1)NC1CC(=O)N(c2ccccc2)C1 (stereo not given),inactive,–
COc1ccc(NC(=O)Cc2csc(NC(=O)Nc3ccccc3OC)n2)c(OC)c1,active: 50.1 µM,–
COc1ccc(C2=NOC(C(=O)NCc3ccccn3)C2)cc1OC (stereo not given),inactive,–
CCCOc1ccc(-c2nn(-c3ccccc3)cc2C2NC(=O)NC(C)=C2C(=O)OC(C)C)cc1 (stereo not given),inactive,–
O=C(CSc1n[nH]c(-c2ccccc2Br)n1)NC(=O)NCc1ccco1,–,inconclusive: -62.2% [inhibitor]
COc1ccc(N2CCN(S(=O)(=O)c3cc4c5c(c3)C(C)C(=O)N5CCC4)CC2)cc1 (stereo not given),active: 44.7 µM,–
Cc1nc2c(c(=O)n1Cc1ccccc1Cl)c1nc3ccccc3nc1n2Cc1ccco1,"inconclusive: 0.794 µM [inhibitor, full curve, poor fit]",–
CC(C)c1ccc(NC(=O)c2cc(S(=O)(=O)NCC3COc4ccccc4O3)ccc2F)cc1 (stereo not given),"inconclusive: 89.1 µM [inhibitor, single point]",–
C=CCNC(=O)c1ccccc1SCc1c(C)noc1C,"inconclusive: 0.316 µM [inhibitor, full curve, poor fit]",–
CCOC(=O)c1ccc(-n2c(CN3CCC(C(N)=O)CC3)nc3ccc([N+](=O)[O-])cc3c2=O)cc1,"inconclusive: 10 µM [inhibitor, full curve, poor fit]",–
COc1cc2[nH]c3c(Cl)ncnc3c2cc1OC,"inconclusive: 5.01 µM [inhibitor, full curve]",–
COc1ccc(Cl)cc1NC(=O)COc1ccc2c(c1)OCO2,–,inactive: 6.56% [at 12.7 µM]
Cc1ccc(C2=NN3C(C2)c2ccccc2OC32C(=O)Nc3ccccc32)cc1 (stereo not given),"inconclusive: 50.1 µM [inhibitor, partial curve, poor fit]",–
CCOC(=O)C1=C(C)N(C)C(=O)NC1c1cccc(O)c1 (stereo not given),"inconclusive: 31.6 µM [inhibitor, partial curve, poor fit]",–
O=C(O)Cc1ccc(NC(=O)c2ccc3c(c2)C(=O)N(Cc2ccco2)C3=O)cc1,"inconclusive: 89.1 µM [inhibitor, single point]",–
O=C(CSc1ccsc1[N+](=O)[O-])N1CCN(c2ccccn2)CC1,active: 44.7 µM,–
Cc1cc(C)cc(-n2nnc(-c3nc(-c4ccc5c(c4)OCO5)no3)c2C)c1,inactive,–

SMILES,Potency,"activity, negative = inhibition"
CCc1nc2nc(C)cc(Nc3cccc(C(F)(F)F)c3)n2n1,"inconclusive: 3.16 µM [inhibitor, partial curve, poor fit]",–
Cc1cccc(OCC(=O)Nc2ccc(N3CCN(C(=O)c4ccccc4)CC3)cc2)c1,"inconclusive: 7.94 µM [inhibitor, full curve]",–
O=C(Nc1ccc(Br)cc1C(=O)O)c1ccc2c(c1)C(=O)N(Cc1ccccc1)C2=O,inactive,–
Cc1nc2nc(SCC(N)=O)[nH]c2cc1Br,"inconclusive: 3.55 µM [inhibitor, partial curve, poor fit]",–
COc1cccc(C(=O)NCCSc2c(-c3ccc(F)cc3)[nH]c3ccccc23)c1OC,inactive,–
COc1ccc2c(c1)c(=O)oc1c(C)c(OCc3ccc(C(=O)O)cc3)ccc12,"inconclusive: 89.1 µM [inhibitor, single point]",–
CCCc1cc(C(=O)Nc2ccc(C#N)cc2)no1,"inconclusive: 31.6 µM [inhibitor, single point]",–
COc1ccc(S(N)(=O)=O)cc1C(=O)NCCCN1CCN(c2ccccc2OC)CC1,inactive,–
N=c1c(C(=O)NCc2ccccc2)cc2c(=O)n3ccccc3nc2n1CCCN1CCOCC1,"inconclusive: 89.1 µM [inhibitor, single point]",–
CCOC(=O)c1ccc(NC(=O)c2nc[nH]c2C(=O)NC)cc1,"inconclusive: 3.16 µM [inhibitor, single point]",–
COc1ccc2c(c1)C1=NN(/C(C)=C\C(C)=O)C(c3ccccc3)C1CC2 (stereo not given),"inconclusive: 39.8 µM [inhibitor, single point]",–
CC1CCCCC1NC(=O)c1ccncc1 (stereo not given),inactive,–
COC(=O)c1ccc(OC(=O)C2CC(=O)N(c3cccc(C)c3)C2)cc1 (stereo not given),–,inconclusive: -70.2% [inhibitor]
CC1CCN(c2nc3ccc(C(=O)N4CCN(Cc5ccccc5)CC4)cc3s2)CC1,active: 70.8 µM,–
Cc1ccc(NCc2cccn2-c2nnc(N3CCC(C(=O)NC(C)C)CC3)s2)cc1,inactive,–
COc1ccc(NC(=O)CSc2nc3c(c(=O)n2-c2ccc(C)cc2)SCC3)c(OC)c1,"inconclusive: 3.55 µM [inhibitor, single point]",–
COc1ccccc1C(=O)CSc1n[nH]c(N)n1,–,inconclusive: -84.1% [inhibitor]
CCOc1ccc(-c2cc(N)n(S(=O)(=O)c3cccc4nsnc34)n2)cc1,active: 22.4 µM,–
Cc1onc(-c2ccc(Cl)cc2Cl)c1-c1csc(N/N=C/c2ccccc2)n1,"inconclusive: 39.8 µM [inhibitor, partial curve]",–
Cc1onc(-c2ccccc2)c1C(=O)N/N=C/c1cc(Br)c(Br)o1,"inconclusive: 79.4 µM [inhibitor, single point]",–
CC1c2[nH]c3ccccc3c2CCN1C(=O)Nc1ccccc1 (stereo not given),"inconclusive: 22.4 µM [inhibitor, single point]",–
COc1ccc(OC)c(Nc2cc(C)nc3nc(C)nn23)c1,"inconclusive: 31.6 µM [inhibitor, single point]",–
